Test results reported in a collection of fitness landscapes (doi:10.1126/science.1257360).
The list shows a part of the results.

B1: PhoQ; a variant is named by its letters at X, in order, P23837 (parent)
chain: MKKLLRLFFPLSLRVRFLLATAAVVLVLSLAYGMVALIGYSVSFDKTTFRLLRGESNLFYTLAKWENNKLHVELPENIDKQSPTMTLIYDENGQLLWAQRDVPWLMKMIQPDWLKSNGFHEIEADVNDTSLLLSGDHSIQQQLQEVREDDDDAEMTHSVAVNVYPATSRMPKLTIVVVDTIPVELKSSYMVWSWFIYVLSANLLLVIPLLWVAAWWSLRPIEALAKEVRELEEHNRELLNPATTRELTSLVRNLNRLLKSERERYDKYRTTLTDLTHSLKTPLXXLQXXLRSLRSEKMSVSDAEPVMLEQISRISQQIGYYLHRASMRGGTLLSRELHPVAPLLDNLTSALNKVYQRKGVNISLDISPEISFVGEQNDFVEVMGNVLDNACKYCLEFVEISARQTDEHLYIVVEDDGPGIPLSKREVIFDRGQRVDTLRPGQGVGLAVAREITEQYEGKIVAGESMLGGARMEVIFGRQHSAPKDE

Variants of: B1
Test: enrichment ratio after two sorts for PhoP signalling (ratio (wild type AVST 3.29)); higher = more functional
Conditions: with PhoP (E. coli)
For DRRL, the enrichment ratio was at most 0.25. FVWN showed an enrichment ratio of at most 0.25. Work on WWQL yielded an enrichment ratio of at most 0.25. Work on NGRA yielded an enrichment ratio of at most 0.25. Variant WPRN has an enrichment ratio of at most 0.25. In the case of GENV, the enrichment ratio is reported as at most 0.25. For GKQG, the enrichment ratio was at most 0.25. WKSH showed an enrichment ratio of at most 0.25. ADVH gave an enrichment ratio of 0.679. Variant FLCQ has an enrichment ratio of at most 0.25. TFMR was tested, and the enrichment ratio was at most 0.25. YKAD showed an enrichment ratio of at most 0.25. WAFF was tested, and the enrichment ratio was at most 0.25. In the case of MSAN, the enrichment ratio is reported as 9.44. Variant GYPT has an enrichment ratio of at most 0.25. Work on FLYP yielded an enrichment ratio of at most 0.25. QECH showed an enrichment ratio of at most 0.25. In the case of YKRG, the enrichment ratio is reported as at most 0.25. NTVH was tested, and the enrichment ratio was at most 0.25. With PHMC the enrichment ratio was at most 0.25. Variant TEAC has an enrichment ratio of 25.6. In the case of DNWA, the enrichment ratio is reported as at most 0.25. LLGN was tested, and the enrichment ratio was at most 0.25. AIVP showed an enrichment ratio of 0.273. For YMGN, the enrichment ratio was at most 0.25. PQKS gave an enrichment ratio of at most 0.25. RAQF was tested, and the enrichment ratio was at most 0.25. Variant PGAH has an enrichment ratio of at most 0.25. NSRL gave an enrichment ratio of at most 0.25. In the case of FKDC, the enrichment ratio is reported as at most 0.25. In the case of KYEP, the enrichment ratio is reported as at most 0.25. HHWW showed an enrichment ratio of at most 0.25. Variant INRS has an enrichment ratio of at most 0.25. With VSCC the enrichment ratio was at most 0.25. In the case of GSES, the enrichment ratio is reported as at most 0.25. In the case of QAGQ, the enrichment ratio is reported as 24.5. Variant ARMC has an enrichment ratio of at most 0.25. In the case of VPPN, the enrichment ratio is reported as at most 0.25. VHPC showed an enrichment ratio of at most 0.25. Variant EARG has an enrichment ratio of at most 0.25. AGSH was tested, and the enrichment ratio was 9.44. With ENAW the enrichment ratio was at most 0.25. WEHL gave an enrichment ratio of at most 0.25. Work on WWLE yielded an enrichment ratio of at most 0.25. With KRIN the enrichment ratio was at most 0.25. IFDP gave an enrichment ratio of at most 0.25. Variant PYSQ has an enrichment ratio of at most 0.25. QGMF gave an enrichment ratio of at most 0.25. In the case of SGMA, the enrichment ratio is reported as 8.36. In the case of MYDL, the enrichment ratio is reported as at most 0.25. For WRQC, the enrichment ratio was at most 0.25. Variant DSPA has an enrichment ratio of at most 0.25. NYWS showed an enrichment ratio of at most 0.25. Work on LQHT yielded an enrichment ratio of at most 0.25. In the case of FNNA, the enrichment ratio is reported as at most 0.25. Variant KDMQ has an enrichment ratio of at most 0.25. LHSH showed an enrichment ratio of at most 0.25. In the case of QEQR, the enrichment ratio is reported as at most 0.25. For HSLQ, the enrichment ratio was 7.69. SRYH showed an enrichment ratio of at most 0.25. With PTAQ the enrichment ratio was at most 0.25. Variant NDAK has an enrichment ratio of at most 0.25. IELP was tested, and the enrichment ratio was at most 0.25. With PMQG the enrichment ratio was at most 0.25. Variant TIAK has an enrichment ratio of 8.23. Variant NQRF has an enrichment ratio of at most 0.25. WRRM gave an enrichment ratio of at most 0.25. EVFP showed an enrichment ratio of at most 0.25. Variant RLQQ has an enrichment ratio of at most 0.25. ELCL was tested, and the enrichment ratio was at most 0.25. LQMS showed an enrichment ratio of at most 0.25. Work on VQFC yielded an enrichment ratio of at most 0.25. Work on QVHY yielded an enrichment ratio of at most 0.25. PTPT was tested, and the enrichment ratio was at most 0.25. YMLW gave an enrichment ratio of at most 0.25. QILR was tested, and the enrichment ratio was at most 0.25. In the case of FMHH, the enrichment ratio is reported as at most 0.25. Variant TNAC has an enrichment ratio of 3.13. PGGW was tested, and the enrichment ratio was at most 0.25. With FHTK the enrichment ratio was at most 0.25. Variant GTWI has an enrichment ratio of at most 0.25. KQQN gave an enrichment ratio of at most 0.25. For VLTW, the enrichment ratio was 2.09. For MTCH, the enrichment ratio was at most 0.25. Work on IGKQ yielded an enrichment ratio of at most 0.25. Variant DPIP has an enrichment ratio of at most 0.25. For FDTH, the enrichment ratio was at most 0.25. For HMCY, the enrichment ratio was at most 0.25. VMCW was tested, and the enrichment ratio was at most 0.25. With QMST the enrichment ratio was 2.17. In the case of QSDH, the enrichment ratio is reported as 18.9. Work on GATR yielded an enrichment ratio of at most 0.25. KSMV was tested, and the enrichment ratio was at most 0.25. Work on TDCM yielded an enrichment ratio of 6.15. ESSE was tested, and the enrichment ratio was at most 0.25. Variant PKFI has an enrichment ratio of at most 0.25. With TCIV the enrichment ratio was at most 0.25. Work on FPTF yielded an enrichment ratio of at most 0.25. With DPFL the enrichment ratio was at most 0.25. With TSPT the enrichment ratio was at most 0.25. HNAT gave an enrichment ratio of at most 0.25. In the case of ETIV, the enrichment ratio is reported as at most 0.25. Work on FGED yielded an enrichment ratio of at most 0.25. Work on HDYC yielded an enrichment ratio of at most 0.25. Work on IMNA yielded an enrichment ratio of at most 0.25. Variant LSYC has an enrichment ratio of at most 0.25. In the case of VLNI, the enrichment ratio is reported as at most 0.25. KCCL was tested, and the enrichment ratio was at most 0.25. YSGM showed an enrichment ratio of at most 0.25. Work on IVTA yielded an enrichment ratio of at most 0.25. Variant DPFN has an enrichment ratio of at most 0.25. HEWF gave an enrichment ratio of at most 0.25. Work on KMYA yielded an enrichment ratio of at most 0.25. With YFVF the enrichment ratio was at most 0.25. FKAI gave an enrichment ratio of at most 0.25. With MVIH the enrichment ratio was at most 0.25. Work on AWAG yielded an enrichment ratio of at most 0.25. With TNSY the enrichment ratio was 7.94. With IVDS the enrichment ratio was at most 0.25. LMTR gave an enrichment ratio of at most 0.25. Variant WFWM has an enrichment ratio of at most 0.25. YFYI gave an enrichment ratio of at most 0.25. PEPD showed an enrichment ratio of at most 0.25. PIYS was tested, and the enrichment ratio was 0.681. ASCA showed an enrichment ratio of 13.5. With RDST the enrichment ratio was 0.356. KFGV was tested, and the enrichment ratio was at most 0.25. YGTF showed an enrichment ratio of at most 0.25. Work on YPYG yielded an enrichment ratio of at most 0.25. TPVI was tested, and the enrichment ratio was at most 0.25. With QACK the enrichment ratio was at most 0.25. Variant ISLH has an enrichment ratio of at most 0.25. For ITDI, the enrichment ratio was at most 0.25. ELPA showed an enrichment ratio of at most 0.25. QGIF gave an enrichment ratio of at most 0.25. Variant YMMS has an enrichment ratio of at most 0.25. QPLQ was tested, and the enrichment ratio was at most 0.25. PKFK gave an enrichment ratio of at most 0.25. Variant LLNH has an enrichment ratio of at most 0.25. Variant MEVT has an enrichment ratio of 27.6. For MFNE, the enrichment ratio was at most 0.25. Work on EGRM yielded an enrichment ratio of at most 0.25. In the case of VNKY, the enrichment ratio is reported as at most 0.25. Variant WFKQ has an enrichment ratio of at most 0.25. MHNG was tested, and the enrichment ratio was at most 0.25. Work on GTCV yielded an enrichment ratio of at most 0.25. HCGI was tested, and the enrichment ratio was at most 0.25. For DIWV, the enrichment ratio was at most 0.25. With VSCI the enrichment ratio was 7.51. REGF showed an enrichment ratio of at most 0.25. For WYMG, the enrichment ratio was at most 0.25. GPDP showed an enrichment ratio of at most 0.25. With RLHV the enrichment ratio was at most 0.25. In the case of HKRN, the enrichment ratio is reported as at most 0.25. Work on ALMI yielded an enrichment ratio of 17.6. In the case of FDVL, the enrichment ratio is reported as at most 0.25. KSHS showed an enrichment ratio of at most 0.25. Variant HFLH has an enrichment ratio of at most 0.25. MGRS gave an enrichment ratio of at most 0.25. In the case of HRIH, the enrichment ratio is reported as at most 0.25. For MYGN, the enrichment ratio was at most 0.25. Variant YRRW has an enrichment ratio of at most 0.25. In the case of FLHN, the enrichment ratio is reported as at most 0.25. With PAND the enrichment ratio was at most 0.25. Variant HYHW has an enrichment ratio of at most 0.25. Variant EGES has an enrichment ratio of at most 0.25. Work on QPIN yielded an enrichment ratio of at most 0.25. TRKD was tested, and the enrichment ratio was at most 0.25. GPVH was tested, and the enrichment ratio was at most 0.25. Variant FACT has an enrichment ratio of at most 0.25. QCFK gave an enrichment ratio of at most 0.25. With NYMP the enrichment ratio was at most 0.25. In the case of QPCH, the enrichment ratio is reported as at most 0.25. In the case of VKGF, the enrichment ratio is reported as at most 0.25. PTHA showed an enrichment ratio of at most 0.25. In the case of HGKC, the enrichment ratio is reported as at most 0.25. In the case of QMCF, the enrichment ratio is reported as at most 0.25. With AAFP the enrichment ratio was at most 0.25. In the case of NCNT, the enrichment ratio is reported as at most 0.25. Variant VCHA has an enrichment ratio of at most 0.25. In the case of NLSR, the enrichment ratio is reported as at most 0.25. TLVK was tested, and the enrichment ratio was at most 0.25. DMAG was tested, and the enrichment ratio was at most 0.25. Variant FWHI has an enrichment ratio of at most 0.25. DYMC gave an enrichment ratio of at most 0.25. With LWPV the enrichment ratio was at most 0.25. With KRHD the enrichment ratio was at most 0.25. RFPW showed an enrichment ratio of at most 0.25. With PWSM the enrichment ratio was at most 0.25. Variant SERY has an enrichment ratio of at most 0.25. Work on HYMN yielded an enrichment ratio of at most 0.25. In the case of FSPG, the enrichment ratio is reported as at most 0.25. With VSST the enrichment ratio was at most 0.25. PNAL gave an enrichment ratio of at most 0.25. Work on NWQE yielded an enrichment ratio of at most 0.25.
